Screen size: about 39,000 compounds; about 220 (0.56%) showed activity. This is one part of the list.
Each compound was assayed on Escherichia coli K-12 BW25113 (assay: relative growth (OD600 normalised to plate interquartile mean) (fraction); higher = less growth inhibition, active = 0.2 or less). Conditions: 50 µM; LB; incubation time: overnight (16-24 h).
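Note: static incubation at 37 °C against the wild-type strain, values averaged over two biological replicates.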

Structure (SMILES)	relative growth
C[C@@H]1CN([C@@H](C)CO)C(=O)c2c(c3ccccc3n2C)-c2ccccc2CO[C@@H]1CN(C)CC1CCCCC1	inactive: 0.999
C[C@@H]1CN([C@@H](C)CO)C(=O)c2cc(NS(=O)(=O)c3ccc(F)cc3)ccc2O[C@@H](C)CCCCO[C@@H]1CN(C)C(=O)Nc1ccc2c(c1)OCO2	inactive: 1.01
C[C@@H]1CN([C@@H](C)CO)C(=O)Cc2cc(NC(=O)Nc3ccc4c(c3)OCO4)ccc2O[C@@H]1CN(C)Cc1ccc(-c2ccccc2)cc1	inactive: 1.05
C[C@H](CO)N1C[C@H](C)[C@H](CN(C)S(=O)(=O)c2ccccc2)Oc2ccc(NS(=O)(=O)c3cccs3)cc2C1=O	inactive: 1.01
C[C@@H]1CN([C@H](C)CO)C(=O)c2cc(NC(=O)Cc3ccccc3)ccc2O[C@@H](C)CCCCO[C@H]1CN(C)C(=O)CCC(F)(F)F	inactive: 0.981
CC(C)NC(=O)N(C)C[C@H]1Oc2ccc(NS(=O)(=O)c3ccc(Cl)cc3)cc2CC(=O)N([C@H](C)CO)C[C@@H]1C	inactive: 0.995
COc1ccc(NC(=O)Nc2ccc3c(c2)C(=O)N([C@@H](C)CO)C[C@@H](C)[C@H](CN(C)C(=O)Nc2c(C)noc2C)OCCCC[C@H](C)O3)cc1	inactive: 1.03
[N-]=[N+]=Nc1ccccc1C[C@@]1(C(=O)NC[C@@H](O)CO)N=C(c2ccc(OCCCO)cc2)O[C@@H]1c1ccccc1	inactive: 1
C[C@@H]1CN([C@@H](C)CO)C(=O)Cc2cc(NC(=O)Cn3cnnn3)ccc2O[C@H]1CN(C)S(=O)(=O)c1cccs1	inactive: 1.01
COC(=O)C1CCN(S(=O)(=O)c2c(C)n(C)c(=O)n(C)c2=O)CC1	inactive: 1.04
C[C@H](CO)N1C[C@H](C)[C@H](CN(C)C(=O)c2cnccn2)Oc2ncc(C#Cc3ccccn3)cc2C1=O	inactive: 0.995
C[C@@H]1CCCCO[C@@H](CN(C)C(=O)c2ccccc2)[C@@H](C)CN([C@H](C)CO)C(=O)c2cc(NC(=O)CCC(F)(F)F)ccc2O1	inactive: 0.986
O=C1OC(c2cc(I)c(O)c(I)c2)(c2cc(I)c(O)c(I)c2)c2ccccc21	inactive: 0.99
COc1ccc(S(=O)(=O)N(C)C[C@@H]2Oc3ccc(NC(=O)CCCN(C)C)cc3C(=O)N([C@H](C)CO)C[C@@H]2C)cc1	inactive: 0.98
CN1CCN(c2nc3c(c(=O)[nH]c(=O)n3C)n2CC(=O)c2ccc(Cl)cc2)CC1	inactive: 1.02
COc1ccc(NC(=O)N(C)C[C@@H]2Oc3ncc(C#C[C@@H](C)O)cc3C(=O)N([C@@H](C)CO)C[C@@H]2C)cc1	inactive: 0.968
C[C@@H]1CCCCO[C@H](CN(C)C(=O)Nc2ccc(F)cc2)[C@@H](C)CN([C@H](C)CO)C(=O)c2cc(NS(=O)(=O)c3cccs3)ccc2O1	inactive: 1.02
C[C@@H]1CN([C@H](C)CO)C(=O)c2cccc(NS(=O)(=O)c3cn(C)cn3)c2O[C@H]1CN(C)S(=O)(=O)c1ccc(Cl)cc1	inactive: 0.999
C[C@@H]1CN([C@H](C)CO)C(=O)Cc2cc(NC(=O)Nc3ccccc3)ccc2O[C@@H]1CN(C)Cc1ccc(Cl)c(Cl)c1	inactive: 1.01

Structure (SMILES)	relative growth
CC(CN1c2ccccc2Sc2ccccc21)N(C)C.Cl (configuration not stated)	inactive: 0.837
C[C@@H]1CCCCO[C@@H](CN(C)Cc2ccccc2)[C@H](C)CN([C@H](C)CO)C(=O)c2cc(NC(=O)Nc3ccccc3)ccc2O1	inactive: 0.981
C[C@H](CO)N1C[C@H](C)[C@@H](CN(C)C(=O)C2CCCCC2)OCCCC[C@H](C)Oc2ccc(NS(=O)(=O)c3ccc(Cl)cc3)cc2C1=O	inactive: 0.999
C[C@H](CO)N1C[C@H](C)[C@H](CN(C)Cc2ccc3c(c2)OCO3)Oc2ccc(NC(=O)Cn3cnnn3)cc2CC1=O	inactive: 0.967
Cc1cc(C(=O)Nc2cccc3c2O[C@H](CN(C)C(=O)Nc2ccccc2)[C@H](C)CN([C@H](C)CO)C3=O)n(C)n1	inactive: 1
COc1ccc(S(=O)(=O)N(C)C[C@@H]2Oc3ccc(NC(=O)Cn4cnnn4)cc3CC(=O)N([C@H](C)CO)C[C@H]2C)cc1	inactive: 0.988
O=C(CN1CCOCC1)NCC[C@H]1CC[C@@H](NC(=O)c2ccc3c(c2)OCO3)[C@H](CO)O1	inactive: 1.01
C[C@H]1CN([C@@H](C)CO)C(=O)c2cccc(NC(=O)C3CCOCC3)c2O[C@@H]1CN(C)Cc1ccc2c(c1)OCO2	inactive: 1.01
C[C@H](CO)N1C[C@H](C)[C@@H](CN(C)C(=O)Nc2ccccc2)OCCCC[C@H](C)Oc2ccc(NS(=O)(=O)c3ccc(F)cc3)cc2C1=O	inactive: 0.987
COCC#Cc1ccc2c(c1)O[C@H](CN(C)C(=O)COC)[C@@H](C)CN([C@H](C)CO)S2(=O)=O	inactive: 0.989
C[C@@H]1CN([C@@H](C)CO)C(=O)c2cccc(NS(=O)(=O)c3ccccc3)c2O[C@@H]1CN(C)S(=O)(=O)c1ccc(F)cc1	inactive: 1.02
COc1ccc(COC[C@@]23Oc4ccccc4[C@@H](NC(=S)N2C)[C@H]3CO[Si](C)(C)C(C)(C)C)cc1	inactive: 1.01
C[C@@H]1CN([C@@H](C)CO)C(=O)Cc2cc(NS(C)(=O)=O)ccc2O[C@@H]1CN(C)Cc1ccc(C(=O)Nc2ccccc2N)cc1	inactive: 1.01
C[C@H]1CN([C@@H](C)CO)C(=O)CCCn2nncc2CO[C@@H]1CN(C)S(=O)(=O)c1ccc2c(c1)OCCCO2	inactive: 1.01
C[C@H](CO)N1C[C@H](C)[C@H](CN(C)Cc2ccccc2)OCCCC[C@H](C)Oc2ccc(NC(=O)Nc3ccccc3)cc2C1=O	inactive: 0.972
C[C@H](CO)N1C[C@H](C)[C@@H](CN(C)Cc2ccc(C(F)(F)F)cc2)Oc2ccc(NC(=O)Nc3ccc4c(c3)OCO4)cc2C1=O	inactive: 1.03
Cc1noc(C)c1NC(=O)N(C)C[C@H]1OCCCC[C@H](C)Oc2ccc(NC(=O)Cc3ccccc3)cc2C(=O)N([C@@H](C)CO)C[C@H]1C	inactive: 0.994
CCS(=O)(=O)N1C[C@]2(C1)CN([C@H](CO)c1c2c2ccc(cc2n1C)OC)C(=O)c1ccc(cc1)F	inactive: 1.01

— the supplement of paper PMC9446081
